Laboratory results published in a compilation of properties of binary mixtures (doi:10.2298/jsc190413047v).
The densities may have been worked out from excess volumes.

Assay: xn = mol fraction of the nth substance listed

CCCCn1cc[n+](C)c1.FC(F)(F)C(F)(F)[P-](F)(F)(F)(C(F)(F)C(F)(F)F)C(F)(F)C(F)(F)F + CC(=O)N(C)C
mass density [kg/m3], 100 kPa
Settings	293.15 K	298.15 K	303.15 K	308.15 K	313.15 K	318.15 K	323.15 K
x1 = 0.0178	984.6	980	975.2	970.4	965.5	960.5	955.5
x2 = 0.0592	1618.8	–	1607	1601.2	1595.3	1589.4	1583.4
x2 = 0.0907	1611.9	1605.9	1600.2	1594.3	1588.5	1582.5	1576.5
x2 = 0.1412	–	–	1588.6	1582.7	1576.8	1570.9	1564.8
x2 = 0.1896	–	1582.2	1576.7	1570.7	1564.8	1558.9	1552.9
x2 = 0.301	1556.2	–	1545.2	–	1533.3	1527.4	1521.5
x2 = 0.3961	1523.6	1518.3	–	1506.7	1500.8	1495.1	1489.1
x2 = 0.4456	1504	1498.8	1493	1487.2	1481.3	1475.6	1469.8
x2 = 0.4959	1481.9	–	1470.9	1465.1	1459.3	1453.6	–
x2 = 0.6005	–	1421.5	1416	1410.4	–	1398.8	1393.2
x2 = 0.6994	1359.9	–	1349	1343.5	1337.9	1332.1	1326.6
x2 = 0.8063	1262	1256.7	–	1246	1240.6	1235.1	–
x2 = 0.8993	1141.4	1136.4	1131.3	1126.1	–	1115.6	1110.3
x2 = 0.9329	1085.4	–	1075.5	1070.4	–	–	1054.9

CCCCCCCCn1cc[n+](C)c1.O=S(=O)([N-]S(=O)(=O)C(F)(F)F)C(F)(F)F + O=C1CCCO1
Settings	mass density [kg/m3]
313.15 K, 100 kPa, x2 = 0.7994	1218.5

CCCC[n+]1ccn(CC)c1.[Br-] + O
mass density [kg/m3], 100 kPa
Settings	293.15 K	298.15 K	303.15 K	308.15 K	313.15 K	318.15 K	323.15 K
x2 = 0	–	1259.4	1256	1252.5	1248.9	1245.5	1241.9
x2 = 0.1059	1260.8	1257.2	–	1250.1	1246.6	1243	1239.4
x2 = 0.2103	1258.3	1254.8	1251.3	1247.7	1244.2	1240.6	1237.1
x2 = 0.235	1257.7	1254.2	1250.7	1247.1	1243.6	1240.1	1236.5
x2 = 0.329	1254.8	1251.3	1247.9	1244.4	1241	–	1233.9
x2 = 0.4253	1250.9	–	–	1240.5	1237.1	1233.7	–
x2 = 0.4747	1248.2	1244.6	1241.3	1237.9	1234.4	1230.9	1227.4
x2 = 0.53	1244.5	–	1237.5	–	–	1227	1223.5
x2 = 0.6008	1238.1	–	1231.1	–	1224.1	1220.5	1216.9
x2 = 0.6599	–	1227.3	1223.7	1220.2	1216.5	1212.9	1209.4
x2 = 0.7048	1223.7	1220.1	1216.5	–	1209.2	1205.4	1201.7
x2 = 0.7965	–	1197.8	1194	1190.2	1186.4	–	1178.9
x2 = 0.9011	1147.3	1144.6	1141.1	1137.5	–	–	1126.7
x2 = 0.9492	–	1095.7	1092.8	–	1086.7	1083.5	–

O + CCCC[n+]1ccn(CC)c1.[Br-]
Settings	mass density [kg/m3]
323.15 K, 100 kPa, x1 = 1	988

O=C1CCCO1 + CCCn1cc[n+](C)c1C.O=S(=O)([N-]S(=O)(=O)C(F)(F)F)C(F)(F)F
Settings	mass density [kg/m3]
293.15 K, 100 kPa, x1 = 1	1129.5

CCCn1cc[n+](C)c1.O=S(=O)([N-]S(=O)(=O)C(F)(F)F)C(F)(F)F + O=C1CCCO1
100 kPa
Settings	mass density [kg/m3]
318.15 K, x2 = 0.9001	1204.5
323.15 K, x2 = 0.2002	1427.5

O=C1CCCCO1 + CCCC[n+]1ccn(C)c1.O=S(=O)([N-]S(=O)(=O)C(F)(F)F)C(F)(F)F
100 kPa
Settings	mass density [kg/m3]
293.15 K, x1 = 1	1108.5
313.15 K, x1 = 0.7012	1281.5

O=C1CCCO1 + CCCCCC[n+]1ccn(C)c1.O=S(=O)([N-]S(=O)(=O)C(F)(F)F)C(F)(F)F
Settings	mass density [kg/m3]
293.15 K, 100 kPa, x1 = 1	1129.5

O=C1CCCO1 + CCCCCCCCn1cc[n+](C)c1.O=S(=O)([N-]S(=O)(=O)C(F)(F)F)C(F)(F)F
Settings	mass density [kg/m3]
293.15 K, 100 kPa, x1 = 1	1129.5

Cn1cc[n+](C)c1.O=S(=O)([N-]S(=O)(=O)C(F)(F)F)C(F)(F)F + O=C1CCCO1
100 kPa
Settings	mass density [kg/m3]
313.15 K, x2 = 0.5002	1451.5
323.15 K, x2 = 0.7009	1357.5

CCCCn1cc[n+](C)c1.FC(F)(F)C(F)(F)[P-](F)(F)(F)(C(F)(F)C(F)(F)F)C(F)(F)C(F)(F)F + CCNC=O
mass density [kg/m3], 100 kPa
Settings	293.15 K	298.15 K	303.15 K	308.15 K	313.15 K	318.15 K	323.15 K
x2 = 0.0583	1620.2	–	–	–	1597	1591.1	–
x2 = 0.1163	1609.3	1603.5	1597.8	1591.9	–	1580.1	1574.2
x2 = 0.2108	–	1584	1578.3	1572.5	1566.6	1560.7	1554.8
x2 = 0.2983	1569.1	1563.3	–	1551.7	1545.9	1540	–
x2 = 0.3946	1541.8	1535.9	1530.3	1524.5	–	1512.8	1507
x2 = 0.5064	1501.9	1496.2	–	1484.8	1479	1473.2	–
x2 = 0.5981	1459.7	1454.1	1448.5	1442.8	1437.1	1431.4	1425.7
x2 = 0.6987	–	–	1387.6	1382	1376.4	1370.8	1365.4
x2 = 0.7995	1312.4	1307	1301.7	1296.3	1290.9	1285.7	1280.5
x2 = 0.8981	–	–	1173.8	1168.9	1163.9	1159	1154.1
x2 = 0.9298	1126.6	1121.8	1117	–	–	1102.8	–
x2 = 0.9654	1048	1043.5	–	1034.6	–	1025.5	–

CCCC[N+]1(C)CCCC1.FC(F)(F)C(F)(F)[P-](F)(F)(F)(C(F)(F)C(F)(F)F)C(F)(F)C(F)(F)F + CN(C)C=O
Settings	mass density [kg/m3]
323.15 K, 101 kPa, x2 = 0.1147	1536.5

CCCCN(C=O)CCCC + CCCC[N+]1(C)CCCC1.FC(F)(F)C(F)(F)[P-](F)(F)(F)(C(F)(F)C(F)(F)F)C(F)(F)C(F)(F)F
101 kPa
Settings	mass density [kg/m3]
293.15 K, x1 = 0.0989	1548.5
293.15 K, x1 = 0.2246	1494.5
298.15 K, x1 = 0.5997	1276.5
308.15 K, x1 = 0.3201	1433.5
313.15 K, x1 = 0.7001	1185.5
313.15 K, x1 = 0.8502	1046.5
323.15 K, x1 = 0.3201	1417.5
323.15 K, x1 = 0.4007	1375.5

CCNC=O + CCCC[N+]1(C)CCCC1.FC(F)(F)C(F)(F)[P-](F)(F)(F)(C(F)(F)C(F)(F)F)C(F)(F)C(F)(F)F
mass density [kg/m3], 101 kPa
Settings	x1 = 0.4473	x1 = 0.8492	x1 = 0.9247
298.15 K	1484.5	–	–
303.15 K	–	1230.5	1119.5

CCCn1cc[n+](C)c1C.O=S(=O)([N-]S(=O)(=O)C(F)(F)F)C(F)(F)F + O=C1CCCO1
Settings	mass density [kg/m3]
318.15 K, 100 kPa, x2 = 0.8508	1235.5
